# Counter-ions that a name gives are not always drawn. In all, about 2,800 compounds were measured (“cell viability relative to vehicle”: median about 0.98, lowest 2% from about 0.45 on). This is one part of the list.
# Test system: NCI-H2228 alectinib-DTP
# Assay: cell viability relative to vehicle (fraction of vehicle); NCI-H2228 is an ALK-positive lung cancer line and DTP means drug-tolerant persister; higher = less growth inhibition
# Settings: 100 nM; treatment time 6 days
# Outline: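 NCI-H2228 parental cells and drug-tolerant persister cells were plated in 384-well plates; the persisters had been generated with 1000 nM of a targeted drug over 13 days. One day later, the 3114-agent TargetMol anti-cancer compound library was added at 100 nM, with DMSO serving as vehicle. ATP was measured 6 days after that using the CellTiter-Glo 3D Cell Viability Assay. Values are cell viability expressed relative to vehicle-treated cells.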
row,Compound,cell viability
1,CCCCCCCCCCCC1=C(O)C(=O)C=C(O)C1=O [Embelin],1.02
2,CCOCc1nc2c(N)nc3ccccc3c2n1CC(C)(C)O [Resiquimod],1.15
3,NC(=O)NC1NC(=O)NC1=O (stereo unspecified) [Allantoin],0.891
4,O=C(O)CNC(=O)c1nc(Cl)c2ccccc2c1O,1.1
5,O=C1CCc2ccc(OCCCCN3CCN(c4cccc(Cl)c4Cl)CC3)cc2N1 [Aripiprazole],0.934
6,CN(C)CCOC(c1ccc(Cl)cc1)c1ccccn1 (stereo unspecified) [Carbinoxamine Maleate Salt],0.925
7,Cc1ccccc1C(OCCN(C)C)c1ccccc1 (stereo unspecified) [Orphenadrine hydrochloride],1.01
8,Cc1ccc(/C=C2\CNC/C(=C\c3ccc(C)cc3)C2=O)cc1,0.951
9,O=C1C(O)=C([C@H]2CC[C@H](c3ccc(Cl)cc3)CC2)C(=O)c2ccccc21 [Atovaquone],0.892
10,Cc1nn(C)c2c1C(c1ccc(C(F)(F)F)cc1)C(C#N)=C(N)O2 (stereo unspecified),0.836
11,CNCc1cc(-c2ccccc2F)n(S(=O)(=O)c2cccnc2)c1 [Vonoprazan fumarate],1.01
12,Cc1cc(Nc2cc(N3CCN(C)CC3)nc(/C=C/c3ccccc3)n2)n[nH]1,0.731
13,COCCOc1ccc2c(c1)ncn2-c1ccc2cccc(N3CCC(N)CC3)c2n1,1.18
14,CCCC(=O)[O-].[Na+] [Sodium butanoate],1.02
15,COc1ccc(C2CC(c3ccccc3)=NN2c2ccc(S(N)(=O)=O)cc2)cc1 (stereo unspecified),0.916
16,Cc1cc(-c2ccc(CC(=O)Nc3ccc(-c4cccnc4)cc3)cc2)ccn1,0.911
17,COC(=O)C1=C(C)NC(C)=C(C(=O)OCCN(C)Cc2ccccc2)C1c1cccc([N+](=O)[O-])c1 (stereo unspecified) [Nicardipine hydrochloride],0.983
18,CC1(C)CNc2cc(NC(=O)c3cccnc3NCc3ccncc3)ccc21 [Motesanib],0.93
19,COc1ccc(N2C(=O)/C(=C\c3ccc([N+](=O)[O-])s3)SC2=S)cc1,0.888

row,Compound,cell viability
1,COc1ccc2cc(OCC3(C(=O)O)CN(C(=O)c4ccc(F)cc4)C3)ccc2c1,0.926
2,Oc1cc(O)c(Cl)cn1 [Gimeracil],1.1
3,CC(C)c1ccc(NC(=O)c2cccs2)c(-c2nc3ccccc3[nH]c2=O)c1,1.07
4,CC(O)(P(=O)(O)O)P(=O)(O)O [Etidronate],1.11
5,CC(O)(P(=O)(O)O)P(=O)(O)O [Sodium etidronate],1.06
6,O=C1[C@H](CC[C@H](O)c2ccc(F)cc2)[C@@H](c2ccc(O)cc2)N1c1ccc(F)cc1 [Ezetimibe],0.779
7,c1cc(-c2cnn3cc(-c4ccc(OCCN5CCCCC5)cc4)cnc23)ccn1 [Dorsomorphin dihydrochloride],1.12
8,c1cc(-c2cnn3cc(-c4ccc(OCCN5CCCCC5)cc4)cnc23)ccn1 [Dorsomorphin],0.979
9,CC1=C(/C=C/C(C)=C/C=C/C(C)=C/C(=O)Nc2ccc(O)cc2)C(C)(C)CCC1=O [4-Oxofenretinide],1.06
10,CCCNc1nc(NCCC)nc(N(C)OC)n1,0.945
11,FC(F)(F)c1ccc(CNc2ccc(Cc3c[nH]c4ncc(Cl)cc34)cn2)cc1,1.03
12,COC(=O)/C=C/c1ccc(O)c(OC)c1,1.17
13,Cc1cnc(C(=O)NCCc2ccc(S(=O)(=O)NC(=O)NC3CCCCC3)cc2)cn1 [Glipizide],0.742
14,Cc1cc(-c2ncc(CC(=O)Nc3ccc(-c4cnccn4)cn3)cc2C)ccn1,0.892
15,O=C(O)COCCN1CCN([C@H](c2ccccc2)c2ccc(Cl)cc2)CC1 [Levocetirizine],0.917
16,COc1ncc(-c2ccc3nccc(-c4ccnnc4)c3c2)cc1NS(=O)(=O)c1ccc(F)cc1F [Omipalisib],0.261
17,CN1CCC(=C2c3ccccc3CCc3sccc32)CC1 [Pizotifen],1.04
18,CN1CCC(=C2c3ccccc3CCc3sccc32)CC1 [Pizotifen Malate],1.05
19,COc1cc2ncnc(Oc3ccc(CC(=O)Nc4cnn(C(C)C)c4)cc3)c2cc1OC,1.13

row,Compound,cell viability
1,CCCCCOC(=O)Nc1nc(=O)n([C@@H]2O[C@H](C)[C@@H](O)[C@H]2O)cc1F [Capecitabine],0.98
2,CC(C)=CCC/C(C)=C/CC/C(C)=C/CSc1ccccc1C(=O)O [Salirasib],1.01
3,C[C@]1(COc2ccc(N3CCC(Oc4ccc(OC(F)(F)F)cc4)CC3)cc2)Cn2cc([N+](=O)[O-])nc2O1 [Delamanid],0.956
4,CCN(CC)CCOc1ccc(C(=C(Cl)c2ccccc2)c2ccccc2)cc1 [Clomifene citrate],1.01
5,COc1ccc(CC(=O)NC(/N=C(\NC#N)Nc2cccc3ncccc23)C(C)(C)C)cc1OC (stereo unspecified),0.985
6,O=C(O)C1(C(=O)O)CCC1.[NH2-].[NH2-].[Pt+2] [Carboplatin],1.13
7,O=C(c1cncc(Br)c1)N1CCC(N2CCCC2)CC1,0.968
8,O=C(Nc1ccc([N+](=O)[O-])cc1O)Nc1ccccc1Br,1.05
9,COc1ccc(C2=N[C@H](c3ccc(Cl)cc3)[C@H](c3ccc(Cl)cc3)N2C(=O)N2CCNC(=O)C2)c(OC(C)C)c1 [Nutlin-3b],1.06
10,CN(C)CCCOc1ccc(-c2ccc3ncc4c(c3c2)n(C2CCOCC2)c(=O)n4C)cn1,0.878
11,O=c1c(O)c(-c2ccc(O)c(O)c2)oc2cc(O)cc(O)c12 [Quercetin],1.01
12,O=C(O)c1cc(I)ccc1NC(=O)[C@H](Cc1ccccc1)NCc1ccccc1,1.14
13,O=C(OCCOCCO)c1ccccc1Nc1cccc(C(F)(F)F)c1 [Etofenamate],1.1
14,COCCc1ccc(OCC(O)CNC(C)C)cc1 (stereo unspecified) [Metoprolol Succinate],0.902
15,COCCc1ccc(OCC(O)CNC(C)C)cc1 (stereo unspecified) [Metoprolol tartrate],1.07
16,CCN1CCN(Cc2ccc(Nc3ncc(F)c(-c4cc(F)c5nc(C)n(C(C)C)c5c4)n3)nc2)CC1 [Abemaciclib],0.92
17,CCN1CCN(Cc2ccc(Nc3ncc(F)c(-c4cc(F)c5nc(C)n(C(C)C)c5c4)n3)nc2)CC1,0.839
18,Nc1nc2[nH]cc(CCc3ccc(C(=O)N[C@@H](CCC(=O)O)C(=O)O)cc3)c2c(=O)[nH]1 [Pemetrexed Disodium Hydrate],0.672
